According to paper PMC4336329 (PLoS ONE, 2015):
Among all 310,000 compounds or so, about 2,200 (0.71%) showed an effect of 50% or more. The effect is printed as a negative number. Some of the results follow.

Target: human ether-à-go-go-related gene (hERG) potassium channel (human, UniProt Q12809)
Assay: primary screen, population patch clamp on CHO cells stably expressing hERG

Sequence of human ether-à-go-go-related gene (hERG) potassium channel (Q12809 whole entry, looked up): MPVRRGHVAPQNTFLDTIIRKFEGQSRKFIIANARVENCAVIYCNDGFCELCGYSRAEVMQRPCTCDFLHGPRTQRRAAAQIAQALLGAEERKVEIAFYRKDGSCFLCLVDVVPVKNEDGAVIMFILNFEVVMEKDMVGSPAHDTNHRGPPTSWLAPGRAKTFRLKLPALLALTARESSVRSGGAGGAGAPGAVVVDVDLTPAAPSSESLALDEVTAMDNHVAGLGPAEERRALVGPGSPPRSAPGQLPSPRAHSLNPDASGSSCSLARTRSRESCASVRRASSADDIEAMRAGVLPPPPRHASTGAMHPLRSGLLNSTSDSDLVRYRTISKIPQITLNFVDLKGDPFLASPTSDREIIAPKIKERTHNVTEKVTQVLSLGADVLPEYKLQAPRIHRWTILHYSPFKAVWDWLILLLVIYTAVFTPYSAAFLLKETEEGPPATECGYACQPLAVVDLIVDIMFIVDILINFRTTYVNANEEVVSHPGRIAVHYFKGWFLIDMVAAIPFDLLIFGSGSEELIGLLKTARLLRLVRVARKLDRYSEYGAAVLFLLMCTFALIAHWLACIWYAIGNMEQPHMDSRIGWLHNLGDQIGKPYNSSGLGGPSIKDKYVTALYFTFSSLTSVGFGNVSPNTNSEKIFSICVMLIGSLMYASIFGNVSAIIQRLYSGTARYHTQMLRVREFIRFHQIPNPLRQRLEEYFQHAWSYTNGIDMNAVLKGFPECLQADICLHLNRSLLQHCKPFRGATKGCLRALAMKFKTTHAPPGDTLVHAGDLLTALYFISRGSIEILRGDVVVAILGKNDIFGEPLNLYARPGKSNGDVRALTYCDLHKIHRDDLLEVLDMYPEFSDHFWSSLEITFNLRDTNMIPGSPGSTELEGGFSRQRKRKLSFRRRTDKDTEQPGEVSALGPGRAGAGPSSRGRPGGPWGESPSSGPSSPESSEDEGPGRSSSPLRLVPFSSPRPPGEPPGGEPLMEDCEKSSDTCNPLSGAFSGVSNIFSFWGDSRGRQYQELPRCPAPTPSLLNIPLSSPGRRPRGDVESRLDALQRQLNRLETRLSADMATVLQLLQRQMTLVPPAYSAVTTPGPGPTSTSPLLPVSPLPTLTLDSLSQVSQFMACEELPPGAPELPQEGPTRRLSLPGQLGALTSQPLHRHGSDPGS

SMILES | hERG current change (%, negative = inhibition) at 1uM
CC(C)CC1NC(=O)N(CC(=O)N2CCN(S(=O)(=O)c3ccccc3)CC2)C1=O (stereo not shown) | 8.79%
CCC(=O)c1ccccc1OCCCn1cncn1 | 6.77%
Cc1ccc(C(C)C)c(OCCCCN2CCNCC2)c1.O=C(O)C(=O)O | 8.87%
Cc1ccc(S(=O)(=O)NCCC(=O)OCc2ccc([N+](=O)[O-])cc2)cc1C | 5.55%
OC1CCCN(c2c3c(nc4cc(-c5cccc(Cl)c5)nn24)CCC3)C1 (stereo not shown) | 4.89%
c1ccc(C2=NOC(c3nnc(-c4ccccc4)o3)C2)cc1 (stereo not shown) | -26.2%
COc1ccccc1S(=O)(=O)Nc1ccc2cn[nH]c2c1 | 10.6%
S=C1NC2(CCCCCC2)N=C1c1ccccc1 | 10.2%
O=C(/C=C/c1ccco1)N/C(=C\c1ccccc1)C(=O)NCCc1nc2ccccc2[nH]1 | -3.22%
Cc1cc(C)c2c(=O)[nH]c(SCc3ccc([N+](=O)[O-])cc3)nc2n1 | 5.09%
COc1ccc(C2CCCN2C(=S)Nc2ccc(C)cc2C)cc1OC (stereo not shown) | -5.37%
COc1ccc(/C(N)=N/OC(=O)C2CCCCC2)cc1OC | 13.8%
CC1CCC(N2CC(=O)N(Cc3ccc4c(c3)OCO4)C(c3ccc(F)cc3)C2=O)CC1 (stereo not shown) | -5.74%
COc1ccc(N2CC(C(=O)Nc3nnc(SCC(=O)NC(C)(C)C)s3)CC2=O)cc1 (stereo not shown) | 9.2%
CCN(CC)S(=O)(=O)c1ccc(/C=C/C(=O)OCC(=O)Nc2ccc(S(N)(=O)=O)cc2)cc1 | -3.26%
Cn1cnnc1SCC(=O)c1cc2ccccc2oc1=O | 10.6%
Cc1c(Cl)cccc1NC(=O)COC(=O)C12CC3CC(CC(O)(C3)C1)C2 | 6.7%
Cc1c(CCC(=O)O)c(=O)oc2cc3occ(-c4ccc(Cl)cc4)c3cc12 | 16%
Cc1cc(C(F)(F)F)n2nc(-c3cnn(C)c3C(F)(F)F)c(Br)c2n1 | -5.85%
Cc1ccc2nc(-c3ccncc3)cc(C(=O)Nc3ccc(OC(F)F)cc3)c2c1 | 6.52%
O=C(NC1CCCCC1)C(c1cccs1)N(Cc1cccs1)C(=O)c1cccs1 (stereo not shown) | 12.5%
CC(=O)Nc1nc(-c2ccc(Br)s2)cs1 | 14.8%

SMILES | hERG current change (%, negative = inhibition) at 1uM
O=C(c1ccc(Cl)cc1)c1c[nH]c(C(=O)NNc2cccc(Cl)n2)c1 | 12.8%
N#CC1=C(SCC(N)=O)NC2=C(C(=O)c3ccccc32)C1c1ccc(Cl)cc1 (stereo not shown) | 5.65%
CCNS(=O)(=O)c1ccc(CCC(=O)N2CCN(C(=O)OCC)CC2)cc1 | 10.8%
CCOC(=O)Cc1cnc(NC(=O)NC(C(=O)OCC)(c2ccccc2)C(F)(F)F)s1 (stereo not shown) | -0.0449%
O=C(N/N=C/c1ccc(OCc2ccccc2)cc1)c1cccs1 | 15.9%
Fc1cccc(/C=N/Nc2cc(N3CCOCC3)ncn2)c1 | 16.8%
COc1ccccc1-c1cnn2c(N3CCOCC3)cc(C)nc12 | 17.6%
CC(C)CCNC(=O)c1cn(C)c2ccc(S(=O)(=O)N3CCCC3)cc2c1=O | 4.69%
CCN1C(=O)N[C@@H](c2cccc(C(F)(F)F)c2)C(C(C)=O)=C1C | 4.91%
Cc1cc(C)cc(OCc2nnc(SCC(=O)N3CCCCC3)o2)c1 | 10.2%
COc1ccc(NC(=O)C2CCCN2S(=O)(=O)c2ccc3c(c2)CCC(=O)N3)cc1Cl (stereo not shown) | -6.94%
COc1ccc(Cn2nnnc2CN(CCCN2CCOCC2)Cc2cc3cc(OC)ccc3[nH]c2=O)cc1 | 0.319%
COc1ccc(Cl)cc1C(=O)Nc1cccc2ncccc12 | 14.6%
O=C(C(=O)N1CCc2ccccc2C1)c1cn(CC(=O)N2CCOCC2)c2ccccc12 | 2.59%
C[C@H]1NC(=O)[C@@]2(C)[C@@H](c3ccccc3)[C@H]3COc4ccccc4[C@@H]3N2C1=O | 11.1%
O=C(O)CC1(O)C(=O)N(Cc2ccccc2)c2ccccc21 (stereo not shown) | 14.2%
Cc1occc1C(=O)NNC(=O)C1CCCC1 | -1.21%
CCN(c1cccc(C)c1)S(=O)(=O)c1ccc(-c2coc(C)n2)cc1 | 14.1%
O=C(O)C(=O)O.c1ccc(Cn2c(SCCN3CCOCC3)nnc2-c2cccnc2)cc1 | 11.2%
O=C(OCC(=O)N1CCN(c2ccccc2)CC1)c1cnc(Cl)c(Cl)c1 | -12.7%
Cc1cc(C)cc(OCC(=O)OCC(=O)N2CCc3ccccc32)c1 | 10.8%
